According to paper PMC4340053, “The DEAH-box Helicase Dhr1 Dissociates U3 from the Pre-rRNA to Promote Formation of the Central Pseudoknot” (PLoS Biology, 2015):
Results are given in words; binding and its absence hold for the method and conditions named. In cells and extracts the contact can be indirect. Some entries that bind do so weakly or less than the wild type. Tags and fused reporters may be left off the sequences shown.

T1: Dhr1_(K420A)-13myc (S. cerevisiae) (UniProt Q04217)
T1 sequence: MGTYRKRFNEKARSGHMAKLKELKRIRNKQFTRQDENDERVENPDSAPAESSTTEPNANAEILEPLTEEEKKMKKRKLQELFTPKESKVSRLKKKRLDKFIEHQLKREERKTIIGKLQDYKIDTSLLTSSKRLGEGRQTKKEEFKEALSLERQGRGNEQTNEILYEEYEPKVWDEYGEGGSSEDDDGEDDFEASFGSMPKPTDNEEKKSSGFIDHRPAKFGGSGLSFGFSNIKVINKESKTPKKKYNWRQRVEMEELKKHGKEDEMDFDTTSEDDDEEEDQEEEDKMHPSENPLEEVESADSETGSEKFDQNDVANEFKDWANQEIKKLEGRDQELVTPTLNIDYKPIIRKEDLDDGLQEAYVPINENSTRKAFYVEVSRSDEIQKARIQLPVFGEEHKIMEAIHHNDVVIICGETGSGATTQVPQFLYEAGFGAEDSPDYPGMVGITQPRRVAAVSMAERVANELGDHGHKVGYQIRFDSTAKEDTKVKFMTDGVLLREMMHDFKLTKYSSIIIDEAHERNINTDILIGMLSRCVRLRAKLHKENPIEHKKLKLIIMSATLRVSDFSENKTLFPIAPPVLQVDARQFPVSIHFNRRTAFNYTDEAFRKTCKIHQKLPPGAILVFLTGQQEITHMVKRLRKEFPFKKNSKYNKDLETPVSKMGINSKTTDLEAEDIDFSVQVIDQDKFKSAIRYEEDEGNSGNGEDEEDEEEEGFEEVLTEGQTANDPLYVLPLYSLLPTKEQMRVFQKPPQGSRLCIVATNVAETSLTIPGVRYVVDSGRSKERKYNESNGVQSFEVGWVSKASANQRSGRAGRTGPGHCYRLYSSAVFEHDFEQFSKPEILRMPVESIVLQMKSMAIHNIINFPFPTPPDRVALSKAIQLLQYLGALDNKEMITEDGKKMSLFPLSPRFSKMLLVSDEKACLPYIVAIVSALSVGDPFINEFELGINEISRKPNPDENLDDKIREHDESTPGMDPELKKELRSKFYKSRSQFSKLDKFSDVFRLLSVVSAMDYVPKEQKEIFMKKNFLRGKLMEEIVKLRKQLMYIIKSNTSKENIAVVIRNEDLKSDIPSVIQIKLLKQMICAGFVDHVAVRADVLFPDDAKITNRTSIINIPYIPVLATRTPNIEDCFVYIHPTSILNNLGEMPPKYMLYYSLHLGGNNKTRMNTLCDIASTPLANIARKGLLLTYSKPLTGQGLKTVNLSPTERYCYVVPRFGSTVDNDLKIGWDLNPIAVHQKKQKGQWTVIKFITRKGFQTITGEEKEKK


Experiments:
[1] = molecular target: T1, Dhr1_(K420A)-13myc (S. cerevisiae); assay: co-IP; whole cell extracts of AJY3711 expressing dhr1_(K420A)-13myc, shifted to glucose for 6 h; anti-myc (9e10) antibody 2 h at 4°C, Protein A beads; Western blotting of the precipitate
[2] = molecular target: T1, Dhr1_(K420A)-13myc (S. cerevisiae); assay: co-sedimentation; whole cell extracts of cycloheximide-treated cells fractionated by sucrose density gradient ultracentrifugation; fractions TCA-precipitated and Western blotted (anti-myc, anti-Mpp10, anti-Imp4)

binding [1]	binding [2]	Binder
binds	binds	Imp4 (protein, UniProt P53941 1-290) MLRRQARERREYLYRKAQELQDSQLQQKRQIIKQALAQGKPLPKELAEDESLQKDFRYDQSLKESEEADDLQVDDEYAATSGIMDPRIIVTTSRDPSTRLSQFAKEIKLLFPNAVRLNRGNYVMPNLVDACKKSGTTDLVVLHEHRGVPTSLTISHFPHGPTAQFSLHNVVMRHDIINAGNQSEVNPHLIFDNFTTALGKRVVCILKHLFNAGPKKDSERVITFANRGDFISVRQHVYVRTREGVEIAEVGPRFEMRLFELRLGTLENKDADVEWQLRRFIRTANKKDYL
no binding	–	Rps2 (uS5) (protein, UniProt P25443 1-254) MSAPEAQQQKRGGFGGRNRGRPNRRGPRNTEEKGWVPVTKLGRLVKAGKITTIEEIFLHSLPVKEFQIIDTLLPGLQDEVMNIKPVQKQTRAGQRTRFKAVVVVGDSNGHVGLGIKTAKEVAGAIRAGIIIAKLSVIPIRRGYWGTNLGQPHSLATKTTGKCGSVTVRLIPAPRGSGIVASPAVKKLLQLAGVEDVYTQSNGKTRTLENTLKAAFVAIGNTYGFLTPNLWAEQPLPVSPLDIYSDEASAQKKRF

Further lines, the binder ahead of its results:

Binder	binding [1]	binding [2]
Mpp10 (protein, UniProt P47083 1-593) MSELFGVLKSNAGRIILKDPSATSKDVKAYIDSVINTCKNGSITKKAELDEITVDGLDANQVWWQVKLVLDSIDGDLIQGIQELKDVVTPSHNLSDGSTLNSSSGEESELEEAESVFKEKQMLSADVSEIEEQSNDSLSENDEEPSMDDEKTSAEAAREEFAEEKRISSGQDERHSSPDPYGINDKFFDLEKFNRDTLAAEDSNEASEGSEDEDIDYFQDMPSDDEEEEAIYYEDFFDKPTKEPVKKHSDVKDPKEDEELDEEEHDSAMDKVKLDLFADEEDEPNAEGVGEASDKNLSSFEKQQIEIRKQIEQLENEAVAEKKWSLKGEVKAKDRPEDALLTEELEFDRTAKPVPVITSEVTESLEDMIRRRIQDSNFDDLQRRTLLDITRKSQRPQFELSDVKSSKSLAEIYEDDYTRAEDESALSEELQKAHSEISELYANLVYKLDVLSSVHFVPKPASTSLEIRVETPTISMEDAQPLYMSNASSLAPQEIYNVGKAEKDGEIRLKNGVAMSKEELTREDKNRLRRALKRKRSKANLPNVNKRSKRNDVVDTLSKAKNITVINQKGEKKDVSGKTKKSRSGPDSTNIKL	binds	binds
Rps3 (uS3) (protein, UniProt P05750 1-240) MVALISKKRKLVADGVFYAELNEFFTRELAEEGYSGVEVRVTPTKTEVIIRATRTQDVLGENGRRINELTLLVQKRFKYAPGTIVLYAERVQDRGLSAVAQAESMKFKLLNGLAIRRAAYGVVRYVMESGAKGCEVVVSGKLRAARAKAMKFADGFLIHSGQPVNDFIDTATRHVLMRQGVLGIKVKIMRDPAKSRTGPKALPDAVTIIEPKEEEPILAPSVKDYRPAEETEAQAEPVEA	no binding	–
